The results in this text go back to ChEMBL document CHEMBL4888484, “Replenishing the malaria drug discovery pipeline: Screening and hit evaluation of the MMV Hit Generation Library 1 (HGL1) against asexual blood stage Plasmodium falciparum ,using a nano luciferase reporter read-out” (2022).

The whole screen tested about 150,000 compounds, of which about 540 (0.36%) showed an effect of 50% or more. Some of the results follow.

This test deals with Plasmodium falciparum. In words: Primary screen in NF54 nanoGlo assay, in single point, at 2uM, 72h; a lower Z score goes with more inhibition. The class given is functional, Erythrocyte. The note with it: timepoint 72 hour.
A word on the % Inhibition: it is the drop in the measured response relative to a control, in per cent. As for `Cc1cc(N2CC[C@H](c3ccc(C(=O)O)cc3)C2)nc2ccccc12`, the “% Inhibition” value was -12% and the Z score worked out at 2.19.

With `Cc1ccc([C@H](CNC(=O)c2ccc(Br)o2)N2CCCC2)o1`, the “% Inhibition” value is listed as -2% and the Z score came to 0.4.

Regarding `O=C(N[C@H](C(=O)c1ccccc1)N1CCCC1)c1ccccc1`, the “% Inhibition” value is -7% and the Z score was 0.98.

On to `CNC(=O)[C@H]1CCN(Cc2csc(-c3ccc(C(F)(F)F)cc3)n2)C1`, for which the “% Inhibition” value is on record as -6% and the Z score is listed as 0.9.

Turning to `Cc1ccc(C(=O)N(C2CC2)[C@H]2CCc3ccccc32)c(=O)[nH]1`, the “% Inhibition” value was -11% and the Z score was found to be 1.24.

Turning to `CCc1onc(C)c1NC(=O)N1CCN(C)C[C@@H]1CC(C)C`, the “% Inhibition” value is reported as -7% and the Z score is given as 1.44.

On to `O=S(=O)(Nc1cccc(-c2nnc3n2CCC3)c1)c1ccc2c(c1)OCCCO2`, for which the “% Inhibition” value came to 34% and the Z score is given as -4.53.

As to `COc1c(C)cc(C2CCc3nc(C(=O)NCCCN4CCCCC4C)cn3C2)cc1C` (centres undefined), the “% Inhibition” value worked out at 5% and the Z score is listed as -1.07.

For `CCc1nc(-c2ccc(-c3noc(-c4ccc(C#N)cc4F)n3)cc2)cs1`, the “% Inhibition” value is given as -10% and the Z score came out at 1.06.

Consider `CN(C)c1ccc(-n2cnnc2)cc1N`, for which the “% Inhibition” value is given as -10% and the Z score was determined as 1.41.

Take `Cc1noc(C)c1S(=O)(=O)N1CC[C@H](c2ccc3c(c2)CCO3)C1`: the “% Inhibition” value is given as 4% and the Z score was -0.74.

Consider `CN1CCN(c2c(F)cc3c(=O)c(C(=O)Nc4cc(F)c(F)cc4N)cn4c3c2OCN4C)CC1`, for which the “% Inhibition” value stood at 15% and the Z score is listed as -2.84.

Regarding `Cc1noc(C)c1CC(=O)Nc1cc(C2CCCCCC2)[nH]n1`, the “% Inhibition” value turned out to be 1% and the Z score is listed as -0.15.

`C[C@H](Oc1ccccc1)C(=O)N1CCC(c2nc(-c3ccncc3)cs2)CC1`: the “% Inhibition” value is listed as -3% and the Z score was 0.46.

`CCNc1ncc(C(=O)N2CCC[C@H]2c2nc(-c3ccccc3)no2)cn1`: the “% Inhibition” value is listed as -13% and the Z score amounted to 2.48.

As to `CC1CN(C(=O)CN2CCOCC2=O)C(c2ccccc2)CO1` (centres undefined), the “% Inhibition” value came to 2% and the Z score is recorded as -0.24.

Regarding `CCCc1nnc(N2CCC(O)(CO)CC2)o1`, the “% Inhibition” value is recorded as -7% and the Z score turned out to be 0.95.

As for `CCOC(=O)[C@H]1CCCN(Cc2ccc(N3CCOCC3)cc2)C1`, the “% Inhibition” value is -14% and the Z score worked out at 1.83.

As for `Cc1onc(C(=O)N[C@H]2CCCN(c3ccc(=O)n(C)n3)C2)c1CN1CCCCC1`, the “% Inhibition” value was -2% and the Z score was determined as 0.3.

As to `O=C1NCCOc2cc3c(cc21)CCCC3`, the “% Inhibition” value is on record as -37% and the Z score amounted to 4.32.

In the case of `O=C(C[C@@H]1NC(=O)NC1=O)NC(c1ccccc1)C1CCC1` (some centres undefined), the “% Inhibition” value is -3% and the Z score is 0.46.

Consider `OC[C@H]1CCN(c2ccnc3cc(Cl)ccc23)C[C@@H]1O`, for which the “% Inhibition” value is given as -1% and the Z score is 0.17.

As for `C[C@@H](c1ccccc1)n1c(NC(=O)c2ccccc2Cl)c(S(=O)(=O)c2ccccc2)c2nc3ccccc3nc21`, the “% Inhibition” value was -4% and the Z score came to 0.43.

In the case of `COc1cccc(CN2CCC[C@@]3(CCN(C(=O)c4cc(C)nc(N)n4)C3)C2=O)c1`, the “% Inhibition” value stood at 2% and the Z score is given as -0.33.

For `CCC1([C@@](O)(C#CCN(Cc2ccccc2)C(C)(C)C)c2ccccc2)CCCC1`, the “% Inhibition” value worked out at 33% and the Z score was -3.73.

On to `Cc1cc(CN[C@@H](C(=O)N2CCCCC2)c2ccccc2)no1`, for which the “% Inhibition” value was -10% and the Z score was 2.11.

As for `CCCCN1CCN(C(=O)[C@H]2C[C@@H]2c2ccccc2)CC1=O`, the “% Inhibition” value is recorded as -9% and the Z score is reported as 1.62.

Regarding `Nc1ncnc(N2CCc3cccc(F)c3C2)c1Cl`, the “% Inhibition” value was -8% and the Z score amounted to 1.28.

On to `COc1cccc(CN2Cc3c[nH]nc3[C@@H](C)C2)c1C`, for which the “% Inhibition” value is given as -11% and the Z score was determined as 2.04.

Consider `CCn1ccc(C(=O)Nc2ccc3c(c2)OCO3)n1`, for which the “% Inhibition” value is given as -11% and the Z score turned out to be 1.8.

As to `Cc1cc(NC(=O)NC2CCCC2C(=O)OC(C)(C)C)no1` (centres undefined), the “% Inhibition” value is on record as -2% and the Z score was found to be 0.33.

In the case of `COc1ccccc1N1CCN(C(=O)c2[nH]nc3c2CCC3)CC1`, the “% Inhibition” value is recorded as -1% and the Z score is 0.09.

For `CON(C[C@H]1CCCc2ccccc21)C(=O)c1cn(C)cn1`, the “% Inhibition” value was found to be 11% and the Z score was -1.29.

For `CCC(OC1CCCC(C)C1)C(=O)NC(C(N)=O)C(C)C` (centres undefined), the “% Inhibition” value is -3% and the Z score came out at 0.46.

Regarding `COC(=O)CCNC(=O)CC[C@@H]1NC(=O)c2ccccc2NC1=O`, the “% Inhibition” value was 3% and the Z score is reported as -0.4.

For the molecule `CCn1c(NC(=O)[C@H]2CCOC2)nc2ccc(Br)cc21`, the “% Inhibition” value is recorded as -6% and the Z score was 0.81.

For `CC(C)CCOC1CCN(C(=O)[C@H]2CCC(=O)N2)C1` (some centres undefined), the “% Inhibition” value is listed as -9% and the Z score was 1.64.

Turning to `COC(=O)c1cn(-n2c(O)cc(C)c(C#N)c2=O)cc2c(O)nnc1-2`, the “% Inhibition” value is recorded as 15% and the Z score is -2.44.

For the molecule `Cc1cnc2cc(C(=O)NC[C@H]3CCCCN3C3CC3)ccn12`, the “% Inhibition” value was determined as 3% and the Z score is -0.6.

Take `CCOCCn1cc(Br)cc(Br)c1=O`: the “% Inhibition” value is -20% and the Z score was 2.05.

As to `CC(OCC1CCCO1)C(=O)N1CCCCC1C(O)c1ccccc1` (centres undefined), the “% Inhibition” value is recorded as -7% and the Z score is listed as 0.94.

As to `Cc1ccc(C(=O)N2C[C@H]3CN(C(=O)c4ccccc4)C[C@@]3(CN(C)C)C2)cc1F`, the “% Inhibition” value was -11% and the Z score worked out at 1.45.
